Test results from PubChem BioAssay AID330 (DTP/NCI, 2004).
Toxic doses and inconclusive results are not listed. Certain results were filed several times, with different values. The other results are left out here. An entry can have further records. Values that stand side by side are repeated measurements (runs, samples, wells, individuals or studies).

System: P388 leukemia ip, CD2F1 mice, survival T/C
Assay: NCI In Vivo Anticancer Drug Screen. Data for tumor model P388 Leukemia (intraperitoneal) in CD2F1 (CDF1) mice
Settings: endpoint: median survival time, higher = longer survival
[1] = dose: 6.25 mg/kg/injection, schedule: Q01DX009 (ip), vehicle: water

With `COc1cccc2c1C(=O)c1c(O)c3c(c(O)c1C2=O)C[C@@](O)(/C(C)=N/NC(=O)c1ccccc1)C[C@@H]3OC1CC(N(C)C)C(O)C(C)O1` (stereo partly drawn) the T/C [1] was 108 % of control, 110 % of control, 166 % of control.

For `O=C1C=C(N2CC2)c2ccccc2C1=O`, the T/C (dose: 12.5 mg/kg/injection, schedule: Q01DX009 (ip), vehicle: saline with Tween-80) was 118 % of control and 172 % of control.

`COc1cccc2c1C(=O)c1c(O)c3c(c(O)c1C2=O)C[C@@](O)(C(C)=O)C[C@@H]3OC1CC(NCc2ccccc2)C(O)C(C)O1` (stereo partly drawn) was tested, and the T/C [1] was 91 % of control and 187 % of control.

For `[Na+]`, the T/C (dose: 1.56 % in 0.5 ml injection vol, schedule: Q01DX009 (ip), vehicle: water) was 101 % of control and 171 % of control.

For `O=c1n[n+]([O-])ccn1C1OC(CO)C(O)C1O` (stereo not drawn), the T/C (dose: 400.0 mg/kg/injection, schedule: Q01DX009 (ip), vehicle: saline) was 90 % of control, 150 % of control, 165 % of control.

In the case of `C=COC(=O)N[C@H]1CCc2cc(OC)c(OC)c(OC)c2-c2ccc(SC)c(=O)cc21`, the T/C (dose: 3.0 mg/kg/injection, schedule: Q01DX009 (ip), vehicle: Klucel (hydroxypropylcellulose) (HPC)) is reported as 97 % of control and 152 % of control.

`O=c1[nH]c(=O)n(C2CC(O)C(CO)O2)cc1F` (stereo not drawn) was tested, and the T/C (dose: 74.0 mg/kg/injection, schedule: Q01DX009 (ip), vehicle: saline) was 120 % of control and 176 % of control and the T/C (dose: 300.0 mg/kg/injection, schedule: Q04DX003 (ip), vehicle: saline) was 113 % of control and 175 % of control.

With `CC(=O)OCN1C(=O)C2C3C=CC(C2C1=O)C1C2C(=O)N(COC(C)=O)C(=O)C2C31` (stereo not drawn) the T/C (dose: 100.0 mg/kg/injection, schedule: Q01DX009 (ip), vehicle: saline with Tween-80) was 118 % of control and 155 % of control.

For `CSC1SCC2C(=O)N(C)C(C(C)C)C(=O)OCC(NC(=O)c3cnc4ccccc4n3)C(=O)NC(C)C(=O)N(C)C1C(=O)N(C)C(C(C)C)C(=O)OCC(NC(=O)c1cnc3ccccc3n1)C(=O)NC(C)C(=O)N2C` (stereo not drawn), the T/C (dose: 15.0 micrograms/kg/injection, schedule: Q01DX009 (ip), vehicle: saline with Tween-80) was 112 % of control and 150 % of control, the T/C (dose: 30.0 micrograms/kg/injection, schedule: Q01DX009 (ip), vehicle: saline with Tween-80) was 111 % of control and 168 % of control and the T/C (dose: 120.0 micrograms/kg/injection, schedule: Q01DX009 (ip), vehicle: saline with Tween-80) was 123 % of control and 152 % of control.

In the case of `COc1cc2c(c(OC)c1OC)-c1ccc(SC)c(=O)cc1[C@@H](NC(=O)Oc1ccccc1)CC2`, the T/C (dose: 10.0 mg/kg/injection, schedule: Q01DX009 (ip), vehicle: Klucel (hydroxypropylcellulose) (HPC)) is reported as 108 % of control and 161 % of control.

`CCOC(=O)C(N)CSC(c1ccccc1)(c1ccccc1)c1ccccc1` (stereo not drawn) was tested, and the T/C (dose: 100.0 mg/kg/injection, schedule: Q01DX009 (ip), vehicle: water) was 90 % of control and 196 % of control.

With `CCCCCN(C)/N=N/c1nc[nH]c1C(N)=O` the T/C (dose: 400.0 mg/kg/injection, schedule: Q04DX003 (ip), vehicle: saline with Tween-80) was 113 % of control and 150 % of control.

In the case of `Fc1ccccc1CSc1ncnc2nc[nH]c12`, the T/C (dose: 200.0 mg/kg/injection, schedule: Q04DX003 (ip), vehicle: saline with Tween-80) is reported as 114 % of control and 150 % of control.

In the case of `O=C(Nc1ccc(CCC2=NCCCN2)cc1)c1ccc(C(=O)Nc2ccc(CCC3=NCCCN3)cc2)cc1`, the T/C (dose: 200.0 mg/kg/injection, schedule: Q01DX005 (ip), vehicle: saline with Tween-80) is reported as 98 % of control and 161 % of control.

In the case of `COc1cccc2c1C(=O)c1c(O)c3c(c(O)c1C2=O)C[C@@](O)(C(=O)COC(=O)c1cccnc1)C[C@@H]3OC1CC(N)C(O)C(C)O1` (stereo partly drawn), the T/C (dose: 16.0 mg/kg/injection, schedule: Q04DX003 (ip), vehicle: saline) is reported as 92 % of control and 163 % of control.
